Columns and labels:
SH-SY5Y MitoQC cells = experiment: Mitophagy assay, MitoQC reporter; conditions: OA 10 nM
SH-SY5Y cells = experiment: Neuroprotection against okadaic acid (AD cellular model), crystal violet; conditions: pre-treated 10 µM 1 h, then OA 30 nM 24 h

| SMILES | Mitophagy modulation (SH-SY5Y MitoQC cells) | Protection from cell death caused by OA (SH-SY5Y cells) |
| --- | --- | --- |
| C=C1[C@@H](O)[C@@H]2O[C@]3(CC[C@H](/C=C/[C@@H](C)[C@@H]4CC(C)=C[C@@]5(O[C@H](C[C@@](C)(O)C(=O)O)CC[C@H]5O)O4)O3)CC[C@H]2O[C@@H]1[C@@H](O)C[C@H](C)[C@H]1O[C@@]2(CCCCO2)CC[C@H]1C [OA, okadaic acid, reference compound] | did not show any mitophagy modulation |  |
| COC(=O)c1cc(Nc2ncnc3[nH]ccc23)ccc1Br [ERP2.14] |  | reduced the cell death caused by OA |
